# Data as given in PubChem BioAssay AID504466 (National Center for Advancing Translational Sciences (NCATS), 2011).
# In all, about 330,000 compounds went through this assay and about 4,200 (1.3%) were called active. This list was built around the results that the source calls inconclusive (neither active nor inactive); the mix of calls is not that of the screen. Calls follow the shape of the dose curve; as a rule, active = well fitted activation curve with a large enough effect; inconclusive = small, poorly fitted or top-dose-only effect; inactive = no such curve, though single readings can be large or run the other way. Where the call is inconclusive, the potency comes from a doubtful curve fit.
# Test: qHTS screen for small molecules that induce genotoxicity in human embryonic kidney (HEK293T) cells expressing luciferase-tagged ELG1; also: nearly all actives have a fitted effect of over 60% in size
# Settings: HEK293T ELG1-luciferase reporter, luminescence, 16 h; series mostly up to 46 µM
# In short: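 DMSO vehicle served as control against compound-treated ELG1-luciferase HEK293T cells; exposure lasted 16 hr at 37 °C and 5% CO2, followed by ONE-Glo luminescence detection after 30 min.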
# Potency is read from the fitted curve at half-maximal effect; tags tell the direction and shape of the fitted curve.
row,SMILES,Potency
1,COC(=O)Nc1ccc(OCc2ccccc2)cc1,"inconclusive: 14.6 µM [activator, partial curve]"
2,Cc1ccc(-c2nn(-c3ccccc3)cc2/C=C(\C#N)C(=O)NCc2ccccc2)cc1,"inconclusive: 18.4 µM [activator, partial curve, poor fit]"
3,CCN(CC)CCCNC(=O)c1ccc(CS(=O)(=O)c2ccccc2OC)o1,inactive
4,COc1cc2c(cc1OC)-c1cc(NC3CC3)nc(=O)n1CC2,"inconclusive: 25.9 µM [activator, single point]"
5,O=C(CCNC(=O)c1ccc(Br)cc1)NCc1ccccc1F,inactive
6,CC(=O)Nc1ccc(NC(=O)c2cc(-c3cc(C)cc(C)c3O)n[nH]2)cc1,inactive
7,Cn1c2ccccc2c(=O)c2ccc(C#CC3(N)CCCCC3)cc21,active: 7.3 µM
8,S=C(N/N=C1\CCc2ccccc21)NC1CCCCC1,"inconclusive: 5.8 µM [activator, partial curve, poor fit]"
9,O=C(Nc1ccc(F)cc1F)c1cc2ccccc2oc1=O,active: 4.61 µM
10,CC(=O)c1ccc(-c2ccc(C(=O)N(C)Cc3nc4ccccc4c(=O)[nH]3)o2)cc1,inactive
11,Cc1cc(SCC(=O)N/N=C/c2ccc(O)cc2O)c(C)cc1Br,"inconclusive: 32.6 µM [activator, partial curve, poor fit]"
12,COc1cc(CCC(=O)OCC(=O)NCCc2ccc(S(N)(=O)=O)cc2)cc(OC)c1OC,inactive
13,CCCOc1cccc(-c2nc3ccccc3c(=O)o2)c1,"inconclusive: 20.6 µM [activator, partial curve, poor fit]"
14,N/C(=N\OC(=O)c1ccc(Cl)c(Cl)c1)c1cccc(CSc2ccccn2)c1,"inconclusive: 20.6 µM [activator, partial curve, poor fit]"
15,COc1ccc2oc(C(=O)NCc3ccco3)c(C)c2c1,"inconclusive: 20.6 µM [activator, partial curve]"
16,CCCOc1ccc(C(=O)Nc2ccc3c(c2)OCCO3)cc1,active: 2.91 µM
17,Cc1cc(C)n(-c2ccc3nnc(C)n3n2)n1,"inconclusive: 25.9 µM [activator, partial curve, poor fit]"
18,CC(=O)Nc1ccc(OCc2ccc3c(c2)OCO3)cc1,"inconclusive: 23.1 µM [activator, partial curve]"
19,C/C(=N\Nc1nc2ccccc2[nH]1)c1cccs1,"inconclusive: 2.06 µM [activator, partial curve]"
20,Cn1c(Cc2cccs2)nnc1SCC(=O)N1CCCc2ccccc21,inactive
21,CC(C)(Oc1ccc(Br)cc1Cl)C(=O)Nc1ccon1,inactive
22,O=C(/C(=C/c1ccccc1Cl)c1ccccc1)N1CCOCC1,inactive
23,COC(=O)c1c(C)[nH]c(O)c1C=Nc1ccc(C(C)C)cc1,"inconclusive: 23.1 µM [activator, partial curve, poor fit]"
24,COc1ccc(OCC(=O)Nc2nc3cc4c(cc3s2)OCCO4)cc1,inactive
25,CCOC(=O)c1snc(-c2ccc(F)cc2)c1N,"inconclusive: 11.2 µM [activator, single point]"
26,COc1ccc(CNC(=O)[C@@H](NC(=O)C2CCN(C(=O)[C@@H](N)Cc3ccccc3)CC2)C(C)C)cc1,inactive
27,COc1cccc(/C=N/NC(=O)c2ccoc2C)c1,"inconclusive: 7.3 µM [activator, partial curve]"

row,SMILES,Potency
1,O=C(CNc1ccccc1)Nc1cccc2ccccc12,inactive
2,O=C(Oc1ccc(-c2nc(-c3ccccn3)no2)cc1)c1ccccc1,active: 0.517 µM
3,CCOC(=O)c1sc(-c2ccccc2)cc1N,active: 12.6 µM
4,Cc1cc(C(=O)Nc2cc(C(C)(C)C)on2)c(C)o1,"inconclusive: 18.3 µM [activator, partial curve]"
5,CCCOC(=O)c1ccc(NC(=O)c2ccc(Br)o2)cc1,"inconclusive: 23.1 µM [activator, partial curve, poor fit]"
6,COc1ccc(C2=Nn3c(C)nnc3SC2)cc1,"inconclusive: 18.3 µM [activator, single point]"
7,CCOc1ccc(N=C/C=C/c2ccccc2)c(O)c1,"inconclusive: 7.3 µM [activator, partial curve]"
8,COc1cccc(C=Nc2ccc3c(c2)OCCO3)c1O,"inconclusive: 29.1 µM [activator, single point]"
9,C/C(=N\Nc1ccccc1[N+](=O)[O-])c1ccccc1O,active: 20.6 µM
10,COc1ccc(/C=C2\CCC(C3CCCC3)C2=O)cc1 (stereo not given),"inconclusive: 13 µM [activator, partial curve]"
11,CC(C)OC(=O)c1ccc(COC(=O)c2cnccn2)cc1,inactive
12,COc1cc(-c2cc(=O)c3ccccc3o2)ccc1O,active: 14.6 µM
13,Cc1ccc2cc(/C=N/Nc3nc4ccccc4[nH]3)c(Cl)nc2c1,"inconclusive: 1.84 µM [activator, full curve, poor fit]"
14,COc1ccc(N2CCN(CC(O)c3c[nH]c4ccc(OC)cc34)CC2C)cc1 (stereo not given),inactive
15,Cc1ccc(S(=O)(=O)NCC(=O)N2CCOCCOCCOCC2)cc1,inactive
16,CC(C)N=c1scc(-c2ccco2)n1/N=C/c1ccc(O)c(O)c1,"inconclusive: 11.6 µM [activator, partial curve]"
17,CCNC(=O)c1ccc(NS(=O)(=O)c2ccc3[nH]c(=O)[nH]c3c2)cc1,active: 7.3 µM
18,CCOc1ccc2nc(NC(=O)c3ccccn3)sc2c1,"inconclusive: 11.6 µM [activator, partial curve, poor fit]"
19,O=C(Nc1ccc(S(=O)(=O)NC2=NCCCCC2)cc1)c1ccc(Cl)cc1Cl,"inconclusive: 18.3 µM [activator, single point]"
20,COc1ccc(NC(=O)C2CC(c3ccccc3O)=NO2)cc1OC (stereo not given),inactive
21,Nc1nc(Nc2ccccc2F)nc(N2CCCC2)c1[N+](=O)[O-],"inconclusive: 18.3 µM [activator, partial curve]"
22,O=C(O)C1CC=CCC1C(=O)Nc1ccc2c(c1)CCC2 (stereo not given),inactive
23,O=C(Nc1ccccc1)c1ccc(NC(=O)C2CC2)cc1,active: 20.6 µM
24,COC(=O)c1[nH]c2ccc(C)cc2c1NC(=O)C(C)N1CCN(C2CCCCC2)CC1 (stereo not given),inactive
25,Cn1c(=O)[nH]c(=O)c2c1nc(N/N=C/c1ccncc1)n2Cc1ccc(F)cc1,"inconclusive: 20.6 µM [activator, single point]"
26,O=C(O)c1ccc(N=Nc2c(O)[nH]c3ccccc23)cc1,"inconclusive: 7.3 µM [activator, partial curve, poor fit]"
27,CCOC(=O)c1cc(-c2nnc(-c3ccc(Oc4ccccc4)cc3)o2)c(C)nc1C,inactive

row,SMILES,Potency
1,COc1ccc(-c2cc(C(=O)Nc3cccnc3Cl)no2)cc1,"inconclusive: 25.9 µM [activator, partial curve, poor fit]"
2,Cc1ccc(C(=O)NCCCN2CCOCC2)c(C)c1,inactive
3,C=CCOc1ccc(/C=C2\SC(N)=NC2=O)cc1OC,"inconclusive: 20.6 µM [activator, single point]"
4,CC1=CC=CN2C1=NC(=O)CC2(C)C(=O)N(CC(=O)NC1CCCC1)c1cc(C)cc(C)c1 (stereo not given),inactive
5,O=C(Nc1ccc(F)cc1)Oc1ccc[nH]c1=O,inactive
6,O=c1c(C(c2ccccc2)c2c(O)nc3n(c2=O)CCS3)c(O)nc2n1CCS2,inactive
7,CC(C)Oc1ccc(C2NC(=O)c3ccccc3O2)cc1 (stereo not given),inactive
8,O=C(NCC1CCCO1)c1cc(-c2ccccc2)on1 (stereo not given),active: 10.3 µM
9,O=c1oc2ccccc2cc1NCc1ccccc1O,"inconclusive: 11.6 µM [activator, partial curve, poor fit]"
10,CCCOC(=O)c1ccc(NC(=O)c2cn(CC)c3nc(C)ccc3c2=O)cc1,inactive
11,O=C(CSc1ccccc1C(=O)O)c1ccc(Cl)cc1,"inconclusive: 16.4 µM [activator, partial curve]"
12,Fc1ccc(C2=NNC(=NCc3ccccc3)SC2)cc1F,inactive
13,O=C(/C=C/c1ccccc1[N+](=O)[O-])NCCN1C(=O)S/C(=C\c2ccc(F)cc2)C1=O,"inconclusive: 7.3 µM [activator, partial curve]"
14,O=C(c1cnn(-c2ccc(Cl)cc2)c1)c1ccccc1O,active: 7.3 µM
15,COC1=C(Nc2ccccc2OC)C(=O)c2ccccc2C1=O,inactive
16,Cc1noc(C)c1COc1ccc(C(=O)Nc2ncccc2O)cc1,"inconclusive: 8.2 µM [activator, partial curve, poor fit]"
17,Cc1ccc(-c2nc3cc(N)ccc3o2)c(C)c1,active: 2.59 µM
18,O=C1c2ccc([N+](=O)[O-])cc2C(=O)N1CNc1ccccn1,"inconclusive: 32.6 µM [activator, partial curve, poor fit]"
19,CCC/C(=N\NC(=O)c1csc(C)c1C)c1cccs1,active: 10.3 µM
20,Cc1ccc(Cl)c(OCC(=O)NCC(c2cccs2)N2CCOCC2)c1 (stereo not given),"inconclusive: 25.9 µM [activator, single point]"
21,O=C(COC(=O)c1ccc(Br)cc1)NCCc1ccccc1,inactive
22,Cc1cc(C)cc(-n2ncc3c2CCCC3NC(=O)c2ccccc2N2CCOCC2)c1 (stereo not given),inactive
23,CCCCn1nc(C(=O)NCC(c2cccs2)N2CCOCC2)c2ccccc2c1=O (stereo not given),inactive
24,O=C(NC(=S)Nc1ccc(Cl)cn1)C12CC3CC(CC(C3)C1)C2,inactive
25,COc1cccc(/C=C/c2ccccn2)c1O,active: 7.3 µM
26,CC(=O)Nc1ccc(-c2cn3cc(C)ccc3n2)cc1,"inconclusive: 9.2 µM [activator, partial curve]"
